# This is a noisy data set.
# Assay: amyloid nucleation score relative to library mode (yeast Sup35 reporter selection) (log enrichment difference); higher = more amyloid nucleation; sequences are the first 22 residues of the Bri2 peptide extended by up to 12 random residues
# Conditions: random library (experiment): 1;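 active = nucleation score significantly above 0 at FDR 0.05; inactive = not significantly above 0 or absent from output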
# 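Further: [psi-pin-] Saccharomyces cerevisiae expressing SupN fusions, induced by 100 µM Cu2SO4, selected 7 d at 30 °C without adenine and uracil, scored by deep sequencing of output versus input.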
row,Sequence,amyloid nucleation score
1,EASNCFAIRHFENKFAVETLICMRFWDC,inactive
2,EASNCFAIRHFENKFAVETLICALVVRDTRYGCR,inactive
3,EASNCFAIRHFENKFAVETLICGC,-0.513
4,EASNCFAIRHFENKFAVETLICVQL,1.73
5,EASNCFAIRHFENKFAVETLICMGPSDVWHAGFV,2.55
6,EASNCFAIRHFENKFAVETLICFCLRTG,6.73
7,EASNCFAIRHFENKFAVETLICCGSYGVLQVRCG,4.31
8,EASNCFAIRHFENKFAVETLICGEALRVRRVRAA,inactive
9,EASNCFAIRHFENKFAVETLICLICVRSRYCRGV,-0.475
10,EASNCFAIRHFENKFAVETLICQRPGHYRQGRIG,-0.203
11,EASNCFAIRHFENKFAVETLICRVWKQVDVVMGE,-0.324
12,EASNCFAIRHFENKFAVETLICCGQRCGARRFLR,inactive
13,EASNCFAIRHFENKFAVETLICLASYGIRKSEIL,inactive
14,EASNCFAIRHFENKFAVETLICFVTLEQVAYFVH,inactive
15,EASNCFAIRHFENKFAVETLICWTGPCCRDSQV,5.02
16,EASNCFAIRHFENKFAVETLICAPWRDQGCAIRR,inactive
17,EASNCFAIRHFENKFAVETLICVNLCCRRSFIAV,1.95
18,EASNCFAIRHFENKFAVETLICESERAGAVDGMA,inactive
19,EASNCFAIRHFENKFAVETLICTRRVTECPHLLW,inactive
20,EASNCFAIRHFENKFAVETLICCFLGTPNLAMM,7.92
21,EASNCFAIRHFENKFAVETLICTVVMICQISAFN,inactive
22,EASNCFAIRHFENKFAVETLICFGT,inactive
23,EASNCFAIRHFENKFAVETLICEVETGV,inactive
24,EASNCFAIRHFENKFAVETLICYERTEWTRGSVV,inactive
25,EASNCFAIRHFENKFAVETLICVDSRR,inactive

row,Sequence,amyloid nucleation score
1,EASNCFAIRHFENKFAVETLICLYTFNGNGGFDV,inactive
2,EASNCFAIRHFENKFAVETLICVSSCFCPESLMW,6.16
3,EASNCFAIRHFENKFAVETLICVGQFFVVSGYPQ,6.08
4,EASNCFAIRHFENKFAVETLICVEQWGFDLSQEP,inactive
5,EASNCFAIRHFENKFAVETLICTTGRDGCPRERR,-0.243
6,EASNCFAIRHFENKFAVETLICVF,-0.785
7,EASNCFAIRHFENKFAVETLICNRIGRLRTCRWG,inactive
8,EASNCFAIRHFENKFAVETLICKRRRTLCFYSWS,inactive
9,EASNCFAIRHFENKFAVETLICVHIPVVGLGLRY,inactive
10,EASNCFAIRHFENKFAVETLICPALPCNGLTDMG,inactive
11,EASNCFAIRHFENKFAVETLICLRVWKMTAGGW,-0.0846
12,EASNCFAIRHFENKFAVETLICVYCHALQFCSVK,inactive
13,EASNCFAIRHFENKFAVETLICWLDKTDVRQWSD,inactive
14,EASNCFAIRHFENKFAVETLICCNEVGQSNCASM,6.2
15,EASNCFAIRHFENKFAVETLICCLVCEEALPGR,6.06
16,EASNCFAIRHFENKFAVETLICVGSCTSFAAMDT,inactive
17,EASNCFAIRHFENKFAVETLICRGAPHYHTTCLR,0.531
18,EASNCFAIRHFENKFAVETLICTTVGCV,inactive
19,EASNCFAIRHFENKFAVETLICPV,-0.646
20,EASNCFAIRHFENKFAVETLICNGEVPLDKVCVL,inactive
21,EASNCFAIRHFENKFAVETLICATWGADRDWDAA,inactive
22,EASNCFAIRHFENKFAVETLICFIYCIAYYRTHS,inactive
23,EASNCFAIRHFENKFAVETLICVRIHSASPGCCQ,inactive
24,EASNCFAIRHFENKFAVETLICVFAHSSESASVS,inactive
25,EASNCFAIRHFENKFAVETLICHAM,inactive

# Same assay, conditions: random library (experiment): 2
row,Sequence,amyloid nucleation score
1,EASNCFAIRHFENKFAVETLICTRECTRN,inactive
2,EASNCFAIRHFENKFAVETLICVIGDIGCVISCY,inactive
3,EASNCFAIRHFENKFAVETLICCLTL,7.73
4,EASNCFAIRHFENKFAVETLICFGSVGSFNCFAG,8.5
5,EASNCFAIRHFENKFAVETLICLSCYFGR,8.92
6,EASNCFAIRHFENKFAVETLICAWRVETDRILAS,inactive
7,EASNCFAIRHFENKFAVETLICMNYDTTRGYFSD,4.67
8,EASNCFAIRHFENKFAVETLICPRWC,inactive
9,EASNCFAIRHFENKFAVETLICLANFSHWNILCA,-0.077
10,EASNCFAIRHFENKFAVETLICNGYMGSSSFYFG,6.12
11,EASNCFAIRHFENKFAVETLICRDFS,inactive
12,EASNCFAIRHFENKFAVETLICVERVCKTKQSQV,inactive
13,EASNCFAIRHFENKFAVETLICRLELGWWRIGRA,-0.223
14,EASNCFAIRHFENKFAVETLICDSSFTCKRQERW,4.03
15,EASNCFAIRHFENKFAVETLICWLVVVVCSFKTS,inactive
16,EASNCFAIRHFENKFAVETLICYSLKDRQCTVGL,inactive
17,EASNCFAIRHFENKFAVETLICRYCHMDILMVVG,inactive

row,Sequence,amyloid nucleation score
1,EASNCFAIRHFENKFAVETLICVTVQRSH,-0.223
2,EASNCFAIRHFENKFAVETLICLGMYGRCLVTYK,inactive
3,EASNCFAIRHFENKFAVETLICLSVVGCFECFNV,7.3
4,EASNCFAIRHFENKFAVETLICFFVRKGCYCAGI,inactive
5,EASNCFAIRHFENKFAVETLICIIGWF,inactive
6,EASNCFAIRHFENKFAVETLICFRYMSYIELRLS,inactive
7,EASNCFAIRHFENKFAVETLICKMLRSLPTRSNA,inactive
8,EASNCFAIRHFENKFAVETLICDNRSSITLGLEW,3.53
9,EASNCFAIRHFENKFAVETLICVLMVGDLIRVVT,inactive
10,EASNCFAIRHFENKFAVETLICRGYLSLMWCDWS,inactive
11,EASNCFAIRHFENKFAVETLICFVEIYSWYRHSA,inactive
12,EASNCFAIRHFENKFAVETLICNVWFVTAYNGSV,7.46
13,EASNCFAIRHFENKFAVETLICLNTHDYVLNLRW,inactive
14,EASNCFAIRHFENKFAVETLICWCPITLSLLLSS,1.2
15,EASNCFAIRHFENKFAVETLICLSRVMSESKGVT,inactive
16,EASNCFAIRHFENKFAVETLICWNIVSSGLQRVG,inactive

# Same assay, conditions: random library (experiment): 3
row,Sequence,amyloid nucleation score
1,EASNCFAIRHFENKFAVETLICTDLVPWNGREPM,inactive
2,EASNCFAIRHFENKFAVETLICTEYRPSRGTLL,1.11
3,EASNCFAIRHFENKFAVETLICVLSMGLLKRTEG,-0.0441
4,EASNCFAIRHFENKFAVETLICAMARGKSILCVS,inactive
5,EASNCFAIRHFENKFAVETLICVITSTRRRWAGE,3.43
6,EASNCFAIRHFENKFAVETLICQRGCHLVFRMAC,2.19
7,EASNCFAIRHFENKFAVETLICGMKDHTLVCFTR,inactive
8,EASNCFAIRHFENKFAVETLICMHQPRLWRYGKA,inactive
9,EASNCFAIRHFENKFAVETLICPSILISDLDVDS,-0.0354
10,EASNCFAIRHFENKFAVETLICCLRVGRYRICLR,inactive
11,EASNCFAIRHFENKFAVETLICDYKCQKYASLLR,inactive
12,EASNCFAIRHFENKFAVETLICAAVVGYETPVAV,inactive
13,EASNCFAIRHFENKFAVETLICALAYHRRCVVAC,0.512
14,EASNCFAIRHFENKFAVETLICFHRHSNFIGM,2.41
15,EASNCFAIRHFENKFAVETLICVRSLHQEGVRRW,3.86
16,EASNCFAIRHFENKFAVETLICYAVNVDHNLVER,7.62
17,EASNCFAIRHFENKFAVETLICLEYFQKTDREE,inactive
18,EASNCFAIRHFENKFAVETLICIRVNRLRTLQSV,inactive

row,Sequence,amyloid nucleation score
1,EASNCFAIRHFENKFAVETLICYVCYRLSAEVPS,inactive
2,EASNCFAIRHFENKFAVETLICRMCYDINLSVVR,1.15
3,EASNCFAIRHFENKFAVETLICLTSYAYHPVCRE,1.21
4,EASNCFAIRHFENKFAVETLICHAHHSAAGLNWL,2.66
5,EASNCFAIRHFENKFAVETLICPMRKRSVVLAFQ,inactive
6,EASNCFAIRHFENKFAVETLICRAEGRGATDAA,inactive
7,EASNCFAIRHFENKFAVETLICPLWGPMTPLVLC,inactive
8,EASNCFAIRHFENKFAVETLICVTPRFVQAALLR,inactive
9,EASNCFAIRHFENKFAVETLICTVTLGLIHYAWW,inactive
10,EASNCFAIRHFENKFAVETLICIEYGGLGAGVGE,-0.274
11,EASNCFAIRHFENKFAVETLICGDSVEQMFNFGG,4.12
12,EASNCFAIRHFENKFAVETLICRVSVFFA,inactive
13,EASNCFAIRHFENKFAVETLICRCCQ,0.0651
14,EASNCFAIRHFENKFAVETLICPSWALLR,0.91
15,EASNCFAIRHFENKFAVETLICVFVWRGPEYPGD,inactive
16,EASNCFAIRHFENKFAVETLICTVYFSH,2.36
17,EASNCFAIRHFENKFAVETLICTAGSWNRERLWY,2
18,EASNCFAIRHFENKFAVETLICVMMAV,inactive

# Source: the supplement of paper PMC12067230
